{
  "source": "the supplement of paper PMC8728848",
  "test_in_all_cases": "glycan array binding signal (z-score within array); higher = stronger binding",
  "details_in_all_cases": "glycan notation: IUPAC condensed, linker removed",
  "key": {"[1]": {"molecular_target": "Gal(b1-4)GlcNAc(b1-3)Gal(b1-4)GlcNAc(b1-3)Gal(b1-4)GlcNAc(b1-3)Gal(b1-4)GlcNAc(b1-2)Man(a1-3)[Gal(b1-4)GlcNAc(b1-3)Gal(b1-4)GlcNAc(b1-3)Gal(b1-4)GlcNAc(b1-3)Gal(b1-4)GlcNAc(b1-2)Man(a1-6)]Man(b1-4)GlcNAc(b1-4)[Fuc(a1-6)]GlcNAc", "method_in_brief": "(§1)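 From the Consortium for Functional Glycomics database, 3228 arrays were curated, keeping only those whose protein sequence was available. Binding is given as a within-array Z-score averaged across arrays sharing a protein sequence and across linkers. Negative Z-scores can be read as non-binding.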"}, "[2]": {"molecular_target": "Gal(b1-4)GlcNAc(b1-3)Gal(b1-4)GlcNAc(b1-3)Gal(b1-4)GlcNAc(b1-3)Gal(b1-4)GlcNAc(b1-2)[Gal(b1-4)GlcNAc(b1-3)Gal(b1-4)GlcNAc(b1-3)Gal(b1-4)GlcNAc(b1-3)Gal(b1-4)GlcNAc(b1-6)]Man(a1-6)[Gal(b1-4)GlcNAc(b1-3)Gal(b1-4)GlcNAc(b1-3)Gal(b1-4)GlcNAc(b1-3)Gal(b1-4)GlcNAc(b1-2)Man(a1-3)]Man(b1-4)GlcNAc(b1-4)[Fuc(a1-6)]GlcNAc", "method_in_brief": "as §1"}, "[3]": {"molecular_target": "Gal(b1-4)GlcNAc(b1-3)Gal(b1-4)GlcNAc(b1-3)Gal(b1-4)GlcNAc(b1-3)Gal(b1-4)GlcNAc(b1-3)Gal(b1-4)GlcNAc(b1-2)Man(a1-3)[Gal(b1-4)GlcNAc(b1-3)Gal(b1-4)GlcNAc(b1-3)Gal(b1-4)GlcNAc(b1-3)Gal(b1-4)GlcNAc(b1-3)Gal(b1-4)GlcNAc(b1-2)Man(a1-6)]Man(b1-4)GlcNAc(b1-4)GlcNAc", "method_in_brief": "as §1"}, "[4]": {"molecular_target": "Gal(b1-4)GlcNAc(b1-3)Gal(b1-4)GlcNAc(b1-3)Gal(b1-4)GlcNAc(b1-3)Gal(b1-4)GlcNAc(b1-3)Gal(b1-4)GlcNAc(b1-2)Man(a1-3)[Gal(b1-4)GlcNAc(b1-3)Gal(b1-4)GlcNAc(b1-3)Gal(b1-4)GlcNAc(b1-3)Gal(b1-4)GlcNAc(b1-3)Gal(b1-4)GlcNAc(b1-2)Man(a1-6)]Man(b1-4)GlcNAc(b1-4)[Fuc(a1-6)]GlcNAc", "method_in_brief": "as §1"}, "[5]": {"molecular_target": "Gal(b1-4)GlcNAc(b1-3)Gal(b1-4)GlcNAc(b1-3)Gal(b1-4)GlcNAc(b1-3)Gal(b1-4)GlcNAc(b1-3)Gal(b1-4)GlcNAc(b1-2)[Gal(b1-4)GlcNAc(b1-3)Gal(b1-4)GlcNAc(b1-3)Gal(b1-4)GlcNAc(b1-3)Gal(b1-4)GlcNAc(b1-3)Gal(b1-4)GlcNAc(b1-6)]Man(a1-6)[Gal(b1-4)GlcNAc(b1-3)Gal(b1-4)GlcNAc(b1-3)Gal(b1-4)GlcNAc(b1-3)Gal(b1-4)GlcNAc(b1-3)Gal(b1-4)GlcNAc(b1-2)Man(a1-3)]Man(b1-4)GlcNAc(b1-4)[Fuc(a1-6)]GlcNAc", "method_in_brief": "as §1"}, "[6]": {"molecular_target": "Gal(b1-4)GlcNAc(b1-3)Gal(b1-4)GlcNAc(b1-3)Gal(b1-4)GlcNAc(b1-3)Gal(b1-4)GlcNAc(b1-3)Gal(b1-4)GlcNAc(b1-3)Gal(b1-4)GlcNAc(b1-2)Man(a1-3)[Gal(b1-4)GlcNAc(b1-3)Gal(b1-4)GlcNAc(b1-3)Gal(b1-4)GlcNAc(b1-3)Gal(b1-4)GlcNAc(b1-3)Gal(b1-4)GlcNAc(b1-3)Gal(b1-4)GlcNAc(b1-2)Man(a1-6)]Man(b1-4)GlcNAc(b1-4)GlcNAc", "method_in_brief": "as §1"}, "[7]": {"molecular_target": "Gal(b1-4)GlcNAc(b1-3)Gal(b1-4)GlcNAc(b1-3)GalNAc", "method_in_brief": "as §1"}, "[8]": {"molecular_target": "Gal(b1-4)GlcNAc(b1-3)Gal(b1-4)GlcNAc(b1-3)[Gal(b1-4)GlcNAc(b1-3)Gal(b1-4)GlcNAc(b1-6)]GalNAc", "method_in_brief": "as §1"}, "[9]": {"molecular_target": "Gal(b1-4)GlcNAc(b1-3)Gal(b1-4)GlcNAc(b1-6)[Gal(b1-3)]GalNAc", "method_in_brief": "as §1"}, "[10]": {"molecular_target": "Gal(b1-4)GlcNAc(b1-3)Gal(b1-4)[Fuc(a1-3)]GlcNAc(b1-3)Gal(b1-4)[Fuc(a1-3)]GlcNAc", "method_in_brief": "as §1"}, "[11]": {"molecular_target": "Gal(b1-4)GlcNAc(b1-3)GalNAc", "method_in_brief": "as §1"}, "[12]": {"molecular_target": "Gal(b1-4)GlcNAc(b1-3)[Fuc(a1-3)GlcNAc(b1-6)]Gal(b1-4)Glc", "method_in_brief": "as §1"}, "[13]": {"molecular_target": "Gal(b1-4)GlcNAc(b1-3)[Gal(b1-4)GlcNAc(b1-6)]Gal(b1-4)GlcNAc", "method_in_brief": "as §1"}, "[14]": {"molecular_target": "Gal(b1-4)GlcNAc(b1-3)[GlcNAc(b1-6)]Gal(b1-4)GlcNAc", "method_in_brief": "as §1"}, "[15]": {"molecular_target": "Gal(b1-4)GlcNAc(b1-6)Gal(b1-4)GlcNAc", "method_in_brief": "as §1"}, "[16]": {"molecular_target": "Gal(b1-4)GlcNAc(b1-6)GalNAc", "method_in_brief": "as §1"}, "[17]": {"molecular_target": "Gal(b1-4)GlcNAc(b1-6)[Gal(b1-3)]GalNAc", "method_in_brief": "as §1"}, "[18]": {"molecular_target": "Gal(b1-4)GlcNAc(b1-6)[Gal(b1-4)GlcNAc(b1-3)]GalNAc", "method_in_brief": "as §1"}, "Gal(b1-4)GlcNAc6P": {"molecular_target": "Gal(b1-4)GlcNAc6P", "method_in_brief": "as §1"}, "Gal(b1-6)Gal": {"molecular_target": "Gal(b1-6)Gal", "method_in_brief": "as §1"}, "Gal3S(b1-3)GalNAc": {"molecular_target": "Gal3S(b1-3)GalNAc", "method_in_brief": "as §1"}, "Gal3S(b1-3)GlcNAc": {"molecular_target": "Gal3S(b1-3)GlcNAc", "method_in_brief": "as §1"}, "[19]": {"molecular_target": "Gal3S(b1-3)[Fuc(a1-4)]GlcNAc", "method_in_brief": "as §1"}},
  "note": "This is one part of the list.",
  "data": [
    {"binder": "Microvirin-2 (Microcystis aeruginosa) (protein) MPNFSHTCSSINYDPDSTILSAECQARDGEWLPTELRLSDHIGNIDGELQFGDQNFQETCQDCHLEFGDGEQSVWLVCTCQTMDGEWKSTQILLDSQIDNNDSQLEIGGSMPNFSHTCSSINYDPDSTILSAECQARDGEWLPTELRLSDHIGNIDGELQFGDQNFQETCQDCHLEFGDGEQSVWLVCTCQTMDGEWKSTQILLDSQIDNNDSQLEIG", "values": [
      {"measurement": "glycan array binding signal (z-score)", "setting": "[1]", "value": -0.093},
      {"measurement": "glycan array binding signal (z-score)", "setting": "[2]", "value": -0.112},
      {"measurement": "glycan array binding signal (z-score)", "setting": "[3]", "value": -0.109},
      {"measurement": "glycan array binding signal (z-score)", "setting": "[4]", "value": -0.087},
      {"measurement": "glycan array binding signal (z-score)", "setting": "[5]", "value": -0.102},
      {"measurement": "glycan array binding signal (z-score)", "setting": "[6]", "value": -0.108},
      {"measurement": "glycan array binding signal (z-score)", "setting": "[7]", "value": 0.024},
      {"measurement": "glycan array binding signal (z-score)", "setting": "[8]", "value": 0.029},
      {"measurement": "glycan array binding signal (z-score)", "setting": "[9]", "value": -0.033},
      {"measurement": "glycan array binding signal (z-score)", "setting": "[10]", "value": -0.114},
      {"measurement": "glycan array binding signal (z-score)", "setting": "[11]", "value": -0.136},
      {"measurement": "glycan array binding signal (z-score)", "setting": "[12]", "value": -0.139},
      {"measurement": "glycan array binding signal (z-score)", "setting": "[13]", "value": -0.133},
      {"measurement": "glycan array binding signal (z-score)", "setting": "[14]", "value": -0.129},
      {"measurement": "glycan array binding signal (z-score)", "setting": "[15]", "value": -0.142},
      {"measurement": "glycan array binding signal (z-score)", "setting": "[16]", "value": -0.133},
      {"measurement": "glycan array binding signal (z-score)", "setting": "[17]", "value": -0.131},
      {"measurement": "glycan array binding signal (z-score)", "setting": "[18]", "value": -0.138},
      {"measurement": "glycan array binding signal (z-score)", "setting": "Gal(b1-4)GlcNAc6P", "value": -0.139},
      {"measurement": "glycan array binding signal (z-score)", "setting": "Gal(b1-6)Gal", "value": -0.123},
      {"measurement": "glycan array binding signal (z-score)", "setting": "Gal3S(b1-3)GalNAc", "value": -0.139},
      {"measurement": "glycan array binding signal (z-score)", "setting": "Gal3S(b1-3)GlcNAc", "value": -0.138},
      {"measurement": "glycan array binding signal (z-score)", "setting": "[19]", "value": -0.134}
    ]}
  ]
}
